Reference: a collection of fitness landscapes (doi:10.1126/science.1257360)
The list shows a part of the results.

B1: PhoQ; a variant is named by its letters at X, in order, P23837 (parent)
chain: MKKLLRLFFPLSLRVRFLLATAAVVLVLSLAYGMVALIGYSVSFDKTTFRLLRGESNLFYTLAKWENNKLHVELPENIDKQSPTMTLIYDENGQLLWAQRDVPWLMKMIQPDWLKSNGFHEIEADVNDTSLLLSGDHSIQQQLQEVREDDDDAEMTHSVAVNVYPATSRMPKLTIVVVDTIPVELKSSYMVWSWFIYVLSANLLLVIPLLWVAAWWSLRPIEALAKEVRELEEHNRELLNPATTRELTSLVRNLNRLLKSERERYDKYRTTLTDLTHSLKTPLXXLQXXLRSLRSEKMSVSDAEPVMLEQISRISQQIGYYLHRASMRGGTLLSRELHPVAPLLDNLTSALNKVYQRKGVNISLDISPEISFVGEQNDFVEVMGNVLDNACKYCLEFVEISARQTDEHLYIVVEDDGPGIPLSKREVIFDRGQRVDTLRPGQGVGLAVAREITEQYEGKIVAGESMLGGARMEVIFGRQHSAPKDE

Variants of: B1
Assay: enrichment ratio after two sorts for PhoP signalling (ratio (wild type AVST 3.29)); higher = more functional
Settings: with PhoP (E. coli)

Variant	enrichment ratio
DHRH	≤ 0.25
YHKP	≤ 0.25
ELQI	≤ 0.25
KTDQ	≤ 0.25
FEKV	≤ 0.25
LCHV	≤ 0.25
EMAS	≤ 0.25
PSPD	≤ 0.25
PNRY	≤ 0.25
YLHV	≤ 0.25
SMCY	11.6
SSVS	10.6
ISQW	≤ 0.25
QKAV	≤ 0.25
QAHG	≤ 0.25
FGAN	≤ 0.25
YNCP	1.11
VHPF	≤ 0.25
HKNC	≤ 0.25
SDKP	≤ 0.25
VWSH	≤ 0.25
VGTE	≤ 0.25
FYIV	≤ 0.25
GSRC	≤ 0.25
YIYE	≤ 0.25

Variant	enrichment ratio
STAN	1.11
YCYC	≤ 0.25
VSAE	≤ 0.25
VVHM	≤ 0.25
TWQG	≤ 0.25
TAPK	≤ 0.25
MQLL	6.74
HVQF	≤ 0.25
PDDQ	≤ 0.25
FKAN	≤ 0.25
YIIR	≤ 0.25
APFK	≤ 0.25
LSRM	≤ 0.25
ASKF	≤ 0.25
THGM	12.3
PCSY	≤ 0.25
WCQR	≤ 0.25
LYVH	≤ 0.25
QMWH	≤ 0.25
WVWA	≤ 0.25
HIRW	≤ 0.25
TIKA	≤ 0.25
TPNN	≤ 0.25
GYHA	≤ 0.25
VYMD	≤ 0.25

Variant	enrichment ratio
FIGL	≤ 0.25
DLWT	≤ 0.25
PSRA	≤ 0.25
KIRI	≤ 0.25
GTGM	6.32
SASA	4.07
WSAT	≤ 0.25
QAVS	≤ 0.25
DLNA	≤ 0.25
LRVF	≤ 0.25
RELE	≤ 0.25
QCGR	≤ 0.25
HEGC	≤ 0.25
ILFR	≤ 0.25
FKFS	≤ 0.25
WCGD	≤ 0.25
KKEL	≤ 0.25
TRSY	≤ 0.25
SHQV	≤ 0.25
YESV	≤ 0.25
ELWK	≤ 0.25
EPHQ	≤ 0.25
GEAY	23.4
CFLF	≤ 0.25
LAYD	≤ 0.25

Variant	enrichment ratio
AIWE	≤ 0.25
ITPG	≤ 0.25
MARG	≤ 0.25
MYEY	≤ 0.25
WDIC	≤ 0.25
ASVS	5.6
SVMK	7.82
KHMY	≤ 0.25
YMHG	≤ 0.25
YPWK	≤ 0.25
IYNH	≤ 0.25
LDTA	≤ 0.25
MWRP	≤ 0.25
PRKP	≤ 0.25
YVCA	≤ 0.25
TWRS	≤ 0.25
AWAN	≤ 0.25
CFSL	≤ 0.25
QQVT	≤ 0.25
YPFT	≤ 0.25
HTCN	≤ 0.25
AIGG	4.61
GWWH	≤ 0.25
SHTC	≤ 0.25
RLLR	≤ 0.25

Variant	enrichment ratio
VEEQ	≤ 0.25
HLTH	≤ 0.25
PSEM	≤ 0.25
VVQG	≤ 0.25
LPIS	≤ 0.25
RMAW	≤ 0.25
YFEL	≤ 0.25
MAML	25.7
ELSV	≤ 0.25
AWRP	0.367
NEWY	≤ 0.25
KYLF	≤ 0.25
EMSW	≤ 0.25
ADMM	≤ 0.25
SGGS	2.67
MGCY	29.2
SNNG	9.4
NRPH	≤ 0.25
TKEM	≤ 0.25
GHTQ	≤ 0.25
PQGC	≤ 0.25
EGAW	≤ 0.25
AFFI	≤ 0.25
QRRS	≤ 0.25
NWYW	≤ 0.25

Variant	enrichment ratio
RIHL	≤ 0.25
RSFE	≤ 0.25
WMPH	≤ 0.25
MMVD	≤ 0.25
YYQY	≤ 0.25
LVHD	≤ 0.25
SPLI	≤ 0.25
DIEH	≤ 0.25
IGWG	≤ 0.25
HFVN	≤ 0.25
YFTM	≤ 0.25
IPLH	≤ 0.25
DAIF	≤ 0.25
RLPC	≤ 0.25
PLNM	≤ 0.25
THSW	≤ 0.25
RWRP	≤ 0.25
NMYK	≤ 0.25
GDQH	4.11
TYPS	≤ 0.25
GCGV	≤ 0.25
CSAF	≤ 0.25
IFAF	≤ 0.25
DVQI	≤ 0.25
IRHA	≤ 0.25

Variant	enrichment ratio
YYGG	≤ 0.25
PLLH	≤ 0.25
VYKL	≤ 0.25
GAVM	≤ 0.25
GLTD	≤ 0.25
GCLH	1.51
YFYD	≤ 0.25
RSFS	≤ 0.25
CIGA	≤ 0.25
YFHA	≤ 0.25
ARKQ	≤ 0.25
RANP	≤ 0.25
PNND	≤ 0.25
DKSK	≤ 0.25
HVGH	≤ 0.25
IKQH	≤ 0.25
KIGM	≤ 0.25
FVCL	2.8
QMLL	≤ 0.25
QDET	≤ 0.25
HPNI	≤ 0.25
DLQA	≤ 0.25
ISTG	≤ 0.25
DTGI	≤ 0.25
QEVL	≤ 0.25

Variant	enrichment ratio
STKF	≤ 0.25
QTVF	≤ 0.25
MHHI	≤ 0.25
FGPK	≤ 0.25
EHRG	≤ 0.25
HAKT	≤ 0.25
YETM	≤ 0.25
WYLR	≤ 0.25
HRSE	≤ 0.25
YDWR	≤ 0.25
FPTK	≤ 0.25
VWRL	≤ 0.25
QDAR	≤ 0.25
QSYM	0.977
DFHI	≤ 0.25
DTRP	≤ 0.25
SSYK	≤ 0.25
YSVL	5.73
FHPS	≤ 0.25
ETSV	≤ 0.25
